The campaign covered roughly 420,000 compounds. About 64,000 (15%) were called active. The inconclusive results got no clear call from the source; some entries with a clear call stand among them for comparison. Calls come from the whole dose curve; as a rule, active = well fitted inhibition curve with a large enough effect; inconclusive = small, poorly fitted or top-dose-only effect; inactive = flat fitted curve, though single readings scatter. No potency is given beside an inconclusive call; the fits are too rough.
Assay: qHTS for Inhibitors of human tyrosyl-DNA phosphodiesterase 1 (TDP1): qHTS in cells in absence of CPT; note: nearly all actives have a fitted effect of over 55% in size
Details: DT40 Tdp1-/- hTDP1 cells, no CPT, ATP luminescence, 48 h; activity change, negative = growth inhibition: at 46.2 µM (top of the series)
How it was run: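 Camptothecin absent (DMSO only). Human TDP1-complemented DT40 knockout cells, 400 cells/well, 37 °C for minimum 48 hr; ATP measured via CellTiter-Glo, 30 min dark incubation, luminescence.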
% is set by controls: 0 for no effect and ±100 for the full control effect; potency is the fitted concentration of half-maximal effect; tags give direction and shape of the fitted curve.

Row | SMILES | Potency | activity change, negative = growth inhibition
1 | COc1cccc(-c2nn(C)c3sc(C(=O)NCc4ccc(OC)cc4OC)cc23)c1 | inconclusive [inhibitor, single point] | 
2 | O=C(Nc1ccc2snnc2c1)Nc1cccc2ccccc12 | inconclusive [inhibitor, single point] | 
3 | CCc1cnc2c(c1SC(C(C)=O)C(=O)N(C)C)c(=O)n(C)c(=O)n2C (stereo not drawn) | inconclusive [inhibitor, single point] | 
4 | O=[N+]([O-])c1ccc(-c2cnc(SCc3ccccc3Cl)[nH]2)cc1 | inactive | 
5 | CCCC1CCc2[nH]nc(C(=O)NN)c2C1 (stereo not drawn) | inconclusive [inhibitor, single point] | 
6 | CC(C)c1cc(-c2nc(-c3ccc(Cl)cc3)no2)n[nH]1 | active: 20.6 µM | 
7 | COc1ccc(CC(=O)OC(C)C(=O)Nc2c(C)n(C)n(-c3ccccc3)c2=O)cc1OC (stereo not drawn) | inactive | 
8 | O=C(NCc1ccco1)c1cc2cc(Br)ccc2o1 | inconclusive [inhibitor, single point] | 
9 | COC(=O)c1ccccc1S(=O)(=O)N1CCC(NC(=O)C(Cc2cccc(OC)c2OC)NC(C)=O)CC1 (stereo not drawn) | inactive | 
10 | COc1ccccc1C(=O)Nc1ccc2c(c1)CN(C(=O)CSC)CC2 | inconclusive [inhibitor, single point] | 
11 | N#Cc1cccc(NC(=O)Nc2cccs2)c1 | active: 16.4 µM | 
12 | COc1ccc(Cc2nc3ccc(C(=O)N4CCCCC4CCO)cc3o2)cc1 (stereo not drawn) | inconclusive [inhibitor, single point] | 
13 | CC(=Nc1ccccc1C(F)(F)F)c1ccncc1 | inactive | 
14 | Cc1cccc(C)c1NC(=O)C1C(c2ccc3c(c2)OCO3)=Nc2ccccc2N1C(=O)c1cccc2ccccc12 (stereo not drawn) | active: 7.31 µM | 
15 | CC(C)(C)c1cc[n+](C2=C([O-])c3ccccc3C(=O)/C2=N\S(=O)(=O)c2cccs2)cc1 | active: 4.61 µM | 
16 | CNc1ncnc2c1ncn2[C@H]1C[C@H](O)[C@@H](CO)O1 | active: 7.31 µM | 
17 | CCOc1ccccc1NC(=O)C1=C(C)Nc2ncnn2C1c1ccco1 (stereo not drawn) |  | inconclusive: -30.3% [inhibitor]
18 | COc1cc(OC)c(NC(=O)c2cncn2-c2ccc(F)cc2)cc1Cl | inactive | 
19 | COc1ccccc1C(=O)Nc1ccc(C(=O)OCc2cc(=O)n3c4c(sc3n2)CCCC4)cc1 | inconclusive [inhibitor, partial curve] | 
20 | CCOc1ccc(C2C(C(N)=O)=C(C)Nc3nc(SCc4ccccc4F)nn32)cc1 (stereo not drawn) | inactive | 
21 | NNC(=O)c1ccc(Cn2cc(Cl)cn2)cc1 |  | inconclusive: -38.5% [inhibitor]
22 | C=CCOc1cccc(/C=C2\C(=O)N(Cc3ccc(C)cc3)C(C)=C2C(=O)OC)c1 | active: 23.1 µM | 
23 | C[C@@H](NC(=O)Cn1ccc(N)nc1=O)c1cccc2ccccc12 | inactive | 
24 | Cc1c(C(=O)N2CCCC2)sc2ncnc(NCCc3ccccn3)c12 | inactive | 
25 | CCCn1c(=N)n(CCOc2ccc(OC)cc2)c2ccccc21 | active: 18.4 µM | 

Row | SMILES | Potency | activity change, negative = growth inhibition
26 | Cc1ccc(CNC(=O)c2c(Nc3c(C)cccc3C)sc(C(=O)c3ccccc3)c2N)cc1 | active: 14.6 µM | 
27 | CCc1ccc(C2CC(=O)Nc3c2c(=O)nc2c(C)cccn32)cc1 (stereo not drawn) | inactive | 
28 | COC(=O)[C@@]12C[C@@H](CC(=O)NCC34CC5CC(CC(C5)C3)C4)C(=O)N(CCc3ccc(OC)c(OC)c3)C1=CCC(C)(C)C2 | active: 14.6 µM | 
29 | Cn1c(=O)c2nnn(/N=C(\c3ccccc3)C3CC3)c2n(C)c1=O | inconclusive [inhibitor, partial curve] | 
30 | COc1ccc(N=C2SC(C(=O)N3CCN(c4ccccc4)CC3)CC(=O)N2C)cc1 (stereo not drawn) | inactive | 
31 | CO[C@@H]1CN(C)C(=O)c2ccc(NC(=O)C3CCCC3)cc2OC[C@@H](C)N(Cc2ccc(F)cc2)C[C@H]1C | inconclusive [inhibitor, single point] | 
32 | CCOC(=O)[C@H]1[C@H]2COc3ccc(C)cc3[C@@H]2N2C(=O)c3ccc(F)cc3NC(=O)[C@@]12C | inactive | 
33 | CC(=O)c1cccc(NC(=O)Cc2ccc3c(c2)CCCC3)c1 | inconclusive [inhibitor, single point] | 
34 | COc1ccccc1N(C)S(=O)(=O)c1ccc(C(=O)NCc2ccccc2CN2CCCC2)cc1 | inconclusive [inhibitor, single point] | 
35 | O=S(=O)(NCCCN1CCN(c2ccccc2F)CC1)c1cccc2cccnc12 | inconclusive [inhibitor, partial curve, poor fit] | 
36 | CCOc1ccc(OCc2ccc(C(=O)N3CCCCC3)o2)cc1 | inconclusive [inhibitor, single point] | 
37 | O=C1c2cccc(OCC(=O)N3N=C(c4cccs4)CC3c3ccc(F)cc3)c2CCN1Cc1cccnc1 (stereo not drawn) | active: 10.3 µM | 
38 | COc1ccccc1NC(=O)c1cnn(-c2ccccc2)c1-n1cccc1 | active: 18.4 µM | 
39 | CC1=C(C(=O)OC2CCCCC2)C(c2cccc([N+](=O)[O-])c2)NC(=O)N1 (stereo not drawn) | inconclusive [inhibitor, single point] | 
40 | O=C(NC1CCCCC1)C(c1ccnc2ccccc12)n1c(=O)c(-c2ccccc2)nc2ccccc21 (stereo not drawn) | active: 13 µM | 
41 | CCOC(=O)N1CCC(N2Cc3cccc(C(=O)NCc4ccc(C)cc4)c3C2=O)CC1 | inconclusive [inhibitor, partial curve] | 
42 | COc1cccc(OC)c1OCCN1CCCC1 | inconclusive [inhibitor, single point] | 
43 | CCCn1nc(C(=O)OCC(=O)Nc2ccc(C)cc2)c2ccccc2c1=O | inactive | 
44 | c1coc(-c2ccccc2CN2CCOc3ccc(CN4CCOCC4)cc3C2)c1 | inconclusive [inhibitor, single point] | 
45 | COP(=O)(CN(Cc1ccccc1)C(=S)Nc1c(C)cccc1C)OC | inactive | 
46 | CC(C)Cc1nnc(NC(=O)CCNC(=O)c2ccccc2Cl)s1 | inactive | 
47 | N/C(=N\OC(=O)N1c2ccccc2Sc2ccccc21)c1ccc(Br)cc1 | inconclusive [inhibitor, single point] | 
48 | COc1c(Cl)cc(C(=O)NN)cc1Cl | inconclusive [inhibitor, single point] | 
49 | C=CCn1c2ccccc2c2nnc(SCN3C(=O)c4ccccc4C3=O)nc21 | inactive | 
50 | COc1ccc(N2CCCn3c2nc2c3c(=O)n(CCN3CCOCC3)c(=O)n2C)cc1 | inactive | 

Row | SMILES | Potency | activity change, negative = growth inhibition
51 | CNC(=O)c1cnn(-c2nc(-c3ccc(OC)cc3)cs2)c1C(F)(F)F | inconclusive [inhibitor, partial curve, poor fit] | 
52 | CC(=O)c1ccc(-c2c(CCO)sc3ccccc23)cc1 | inconclusive [inhibitor, single point] | 
53 | CCN(CC(=O)Nc1ccc2c(c1)OCCO2)C(=O)COc1cc(C)ccc1Cl | inconclusive [inhibitor, single point] | 
54 | CC(=O)n1cc(N(C(=O)CCl)c2ccc(C)cc2)c2ccccc21 | active: 1.64 µM | 
55 | CCCc1cc(=O)oc2cc(C)cc(OC(C)C(=O)NCc3ccncc3)c12 (stereo not drawn) | inactive | 
56 | C=CCN(C(=O)CSC1=NC(=O)CN1C(C)=O)c1nc(C)c(-c2ccccc2)s1 | active: 18.4 µM | 
57 | CCCc1[nH]nc2c1C(c1cccc(OC)c1)C(C#N)=C(N)O2 (stereo not drawn) | inconclusive [inhibitor, single point] | 
58 | O=C(c1noc2c1CCc1ccccc1-2)N1CCCc2ccccc21 |  | inconclusive: -33.7% [inhibitor]
59 | CC(=O)c1cccc(NC(=O)c2cc3ccccn3n2)c1 | inconclusive [inhibitor, single point] | 
60 | COc1ccc(CNc2ncc(-c3ccc(F)cc3)n2C)c2ccccc12 | active: 16.4 µM | 
61 | Cc1cccc(OCCCC(=O)NNC(=O)c2ccccn2)c1 | active: 7.31 µM | 
62 | COc1cc(OC)c(C(=O)OCC(=O)NCCC2=CCCCC2)cc1OC | inactive | 
63 | CC(C)c1ccc(NC(=O)Cc2ccc(NC3=NC4CS(=O)(=O)CC4S3)cc2)cc1 (stereo not drawn) | inactive | 
64 | COc1ccc(-c2csc(NC(=O)c3c(C)noc3C)n2)cc1F | inconclusive [inhibitor, single point] | 
65 | CC1(C(=O)NS(=O)(=O)C2CC2)CCN(C(=O)COCc2ccccc2)C1 (stereo not drawn) | inactive | 
66 | CSc1ccc(CCNC(=O)c2csc3c2CCCCC3)cc1 | inconclusive [inhibitor, single point] | 
67 | COc1ccc(-c2csc(/C(C#N)=C\c3ccc(OC)c([N+](=O)[O-])c3)n2)cc1 | inconclusive [inhibitor, partial curve] | 
68 | CSc1nc(N2CCN(Cc3ccc4c(c3)OCO4)CC2)c2ccccc2n1 | inconclusive [inhibitor, partial curve, poor fit] | 
69 | Cc1ccc(-n2c(=O)c3oc4ccccc4c3n(Cc3cccc(F)c3)c2=O)cc1C | inconclusive [inhibitor, partial curve, poor fit] | 
70 | CN(C)S(=O)(=O)c1ccc(N2CCCC2)c(C(=O)NCC2CCCO2)c1 (stereo not drawn) | inactive | 
71 | CNC(=O)CSc1nc2ccccc2c(=O)n1CCc1ccccc1 | inactive | 
72 | CC1CCCC(C)N1NC(=O)c1cccc(S(=O)(=O)N2CCc3ccccc32)c1 (stereo not drawn) | inconclusive [inhibitor, single point] | 
73 | Cc1ccc(C(=O)c2c(N)c(C(=O)Nc3cccc(C(F)(F)F)c3)c3ccccn23)cc1 | inconclusive [inhibitor, full curve, poor fit] | 
